Measurements published in article PMC10668032.
Some of the results follow. At the low end of the ranking the order means little.

The sequences below were run against SIX1-Q177R homeodomain (UniProt Q15475) (assay: universal protein binding microarray). Conditions: Universal all-10-mer PBM (8x60K, AMADID 030236), 300 nM GST-tagged protein, Alexa Fluor 488 anti-GST; buffer, salt, pH and temperature not stated; high values mean tight binding; most listed sequences are background and not binding sites; double strand, one strand shown.

Sequence	binding signal
CCTAAGGC	-0.0414 E-score
GAATACTA	-0.236 E-score
AAACGTAT	-0.224 E-score
CGTCCTGA	-0.151 E-score
CTATCTAC	0.0414 E-score
ATGTTAAT	-0.223 E-score
CCCGAGGA	0.129 E-score
ATCAACAC	0.394 E-score
CATATAGG	0.0431 E-score
AAACATGG	-0.129 E-score
CTCGCCCC	0.173 E-score
CAACCATA	-0.168 E-score
ATGAGGTA	-0.133 E-score
AGCATGGA	-0.172 E-score
GCGGCAAA	-0.113 E-score
AAAACCGA	-0.0187 E-score
GTGTCTAA	0.394 E-score
AGAGCCTC	-0.287 E-score
TGAGGCCA	-0.218 E-score
TCACTTCA	-0.297 E-score
CCGTATAG	-0.0761 E-score
GTGAGGGA	0.0131 E-score

Sequence	binding signal
AATTAAAG	-0.214 E-score
GGCCCAAC	-0.128 E-score
ATCGGTCA	-0.137 E-score
CAGGGGCA	-0.118 E-score
GCCTGGCC	-0.318 E-score
TATATGGA	-0.0149 E-score
AAATCCCA	-0.164 E-score
ACGCGGCT	-0.12 E-score
GAGATTCC	-0.191 E-score
ACCCATTG	0.0294 E-score
ATTGTTAC	-0.0783 E-score
CGCGATCC	0.102 E-score
GCCATCTA	-0.28 E-score
CTTGGCTC	-0.157 E-score
TACTACCA	-0.0414 E-score
AACGATAC	0.142 E-score
CCTAGCTA	0.0442 E-score
AGCCTAAT	-0.06 E-score
CACTGACC	0.0609 E-score
AAGTCTTA	-0.118 E-score
AGAGGTAG	-0.0928 E-score
AGTGCTGC	-0.24 E-score

Sequence	binding signal
AACTCCAC	0.0981 E-score
ACTCTGTG	0.106 E-score
CGACCCAA	-0.128 E-score
CCATAATC	-0.0805 E-score
AATAGGGC	-0.158 E-score
AGCCGGAC	0.0201 E-score
GTCAAAAA	-0.0517 E-score
CCAGGGCG	0.0347 E-score
GACAATGA	-0.186 E-score
CTACCTAG	-0.0733 E-score
GCTTCCCC	0.133 E-score
CCGAGGAC	0.0693 E-score
AACAACCC	0.124 E-score
AACTGGAC	-0.209 E-score
ATACTTGG	-0.0975 E-score
CCACCCGG	0.201 E-score
GCACCAGA	0.181 E-score
TATGATCA	-0.133 E-score
ATCGAACA	0.108 E-score
CCTAACGA	-0.306 E-score
GAGAGACC	-0.186 E-score
CAAGTAAG	0.00724 E-score

Sequence	binding signal
AAATGGGG	-0.0278 E-score
ATCTTGAG	0.00769 E-score
CTGTCTTA	-0.123 E-score
AGGTGACC	-0.00822 E-score
TCCTCAAA	-0.0927 E-score
CGAGTGGA	0.166 E-score
ACACCGCT	0.466 E-score
CTCGACGC	-0.0736 E-score
AATACGAT	0.0826 E-score
GTCATGAA	-0.0108 E-score
AACTCCAT	-0.0692 E-score
ATCTTTAG	-0.0521 E-score
AGACTAGA	-0.172 E-score
CCTACAAG	-0.0918 E-score
CTGTGATA	0.134 E-score
GTCCTCGA	-0.059 E-score
CTGGACTA	-0.0852 E-score
CAGCTGCC	-0.27 E-score
GGGCATAC	0.0668 E-score
GAAAGAGA	-0.101 E-score
